The results in this text go back to publication PMC6435334 (Nature chemical biology, 2018).

Structures are written as SMILES.

In experiment [1] the target is 3-oxo-isoapionate 4-phosphate transcarboxylase/hydrolase (RLP, A7IJG7) (Xanthobacter versatilis, UniProt A7IJG7). Description: 1H NMR, coupled. Particulars: 50 mM Tris pD 8.5; 2 mM MgCl2; 25 °C.
For experiment [2], the target named is D-apiose isomerase (Q6D5T7) (Pectobacterium atrosepticum, UniProt Q6D5T7). The experiment in a line: 1H NMR, coupled with D-apulose kinase. The experiment is classed as biochemical. Particulars: 20 mM D-apiose; 2 mM MgCl2; 50 mM sodium phosphate pH 8.0; 25 °C.
Chain of UniProt Q6D5T7 (Q6D5T7 whole entry): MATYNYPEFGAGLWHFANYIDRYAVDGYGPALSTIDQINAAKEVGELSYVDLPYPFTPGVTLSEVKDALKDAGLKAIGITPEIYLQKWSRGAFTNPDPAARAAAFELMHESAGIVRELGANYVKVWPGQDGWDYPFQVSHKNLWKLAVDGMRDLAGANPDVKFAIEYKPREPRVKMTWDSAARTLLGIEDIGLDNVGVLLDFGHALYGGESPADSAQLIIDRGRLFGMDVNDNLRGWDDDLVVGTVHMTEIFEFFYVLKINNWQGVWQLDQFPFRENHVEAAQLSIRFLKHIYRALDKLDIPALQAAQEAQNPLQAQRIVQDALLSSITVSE

Chain of UniProt A7IJG7 (A7IJG7 whole entry): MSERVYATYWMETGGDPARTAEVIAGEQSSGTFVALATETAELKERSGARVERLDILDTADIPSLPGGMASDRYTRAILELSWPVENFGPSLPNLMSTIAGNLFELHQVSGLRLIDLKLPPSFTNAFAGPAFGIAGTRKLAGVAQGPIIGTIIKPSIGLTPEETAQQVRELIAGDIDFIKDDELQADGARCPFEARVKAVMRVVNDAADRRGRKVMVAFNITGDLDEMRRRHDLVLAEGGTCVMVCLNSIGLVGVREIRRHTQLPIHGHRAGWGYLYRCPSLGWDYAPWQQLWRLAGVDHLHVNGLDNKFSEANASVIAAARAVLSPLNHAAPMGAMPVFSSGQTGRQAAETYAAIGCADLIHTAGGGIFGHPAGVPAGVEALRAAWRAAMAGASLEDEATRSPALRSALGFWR

Regarding `O=C(O)C(O)(CO)C(=O)COP(=O)(O)O` (centres unmarked) [3-oxo-isoapionate 4-phosphate], in experiment [1], the “1H NMR, coupled; substrate made in situ with B9JK75 and B1G889” value is “The RLP converted 3-oxo-isoapionate 4-phosphate to 3-phosphoglycerate (3-PGA) and glycolate”.
As to `O=C[C@H](O)C(O)(CO)CO` [D-apiose], the “1H NMR, coupled with D-apulose kinase” value in experiment [2] was “catalyzes isomerization of D-apiose to D-apulose”.
